Data taken from PMC4336329 (PLoS ONE, 2015).
About 2,200 (0.71%) of roughly 310,000 compounds showed an effect of 50% or more. The effect is printed as a negative number. The list shows a part of the results.

Target: human ether-à-go-go-related gene (hERG) potassium channel (human, UniProt Q12809)
Test: primary screen, population patch clamp on CHO cells stably expressing hERG

Chain of human ether-à-go-go-related gene (hERG) potassium channel (Q12809 whole entry, looked up): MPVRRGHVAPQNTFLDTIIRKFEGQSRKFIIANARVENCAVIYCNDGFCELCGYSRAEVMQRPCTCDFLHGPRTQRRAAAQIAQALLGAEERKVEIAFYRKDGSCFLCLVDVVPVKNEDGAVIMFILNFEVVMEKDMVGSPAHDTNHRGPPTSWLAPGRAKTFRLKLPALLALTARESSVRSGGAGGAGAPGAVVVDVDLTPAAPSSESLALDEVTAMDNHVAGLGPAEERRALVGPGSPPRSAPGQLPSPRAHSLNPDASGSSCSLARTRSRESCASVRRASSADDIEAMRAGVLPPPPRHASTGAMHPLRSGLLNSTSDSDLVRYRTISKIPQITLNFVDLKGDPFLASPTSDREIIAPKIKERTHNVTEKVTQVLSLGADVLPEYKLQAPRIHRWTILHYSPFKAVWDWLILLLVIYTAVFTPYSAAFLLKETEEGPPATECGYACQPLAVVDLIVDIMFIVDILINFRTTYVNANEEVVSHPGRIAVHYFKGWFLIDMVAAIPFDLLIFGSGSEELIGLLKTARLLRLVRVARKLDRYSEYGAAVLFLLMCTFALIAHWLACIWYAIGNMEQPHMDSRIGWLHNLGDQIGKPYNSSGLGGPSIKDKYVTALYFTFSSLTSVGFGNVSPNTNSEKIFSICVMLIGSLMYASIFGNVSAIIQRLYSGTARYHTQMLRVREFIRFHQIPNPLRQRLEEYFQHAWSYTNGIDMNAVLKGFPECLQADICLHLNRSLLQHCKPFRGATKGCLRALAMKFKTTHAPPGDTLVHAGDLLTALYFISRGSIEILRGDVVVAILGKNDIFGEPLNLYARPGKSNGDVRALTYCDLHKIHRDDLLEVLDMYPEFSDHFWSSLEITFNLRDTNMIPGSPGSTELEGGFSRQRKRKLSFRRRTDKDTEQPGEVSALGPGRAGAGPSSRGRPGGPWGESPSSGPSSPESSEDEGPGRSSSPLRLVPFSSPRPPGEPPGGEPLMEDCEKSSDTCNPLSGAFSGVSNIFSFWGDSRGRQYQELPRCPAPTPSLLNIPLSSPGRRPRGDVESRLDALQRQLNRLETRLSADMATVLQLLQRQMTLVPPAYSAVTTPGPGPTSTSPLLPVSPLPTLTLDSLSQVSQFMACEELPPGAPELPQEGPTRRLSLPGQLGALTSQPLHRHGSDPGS

SMILES | hERG current change (%, negative = inhibition) at 1uM [%]
O=C(CNC(=O)c1ccc(Cl)cc1Cl)OCCOc1ccccc1 | 9.55
CCOc1ccc(NC(=O)CSc2nnc(-c3ccccc3)n2N)cc1 | 9.21
CCCCC1CCC(C(=O)Nc2ccc(S(=O)(=O)Nc3nccs3)cc2)CC1 (centres unmarked) | 6.63
CCOc1ccc(C(=O)NCCC(=O)N2CCC3(CC2)NCCc2[nH]cnc23)cc1 | 3.2
COC(=O)c1ccc(CSc2nc3c(cnn3-c3ccc(F)cc3)c(=O)[nH]2)o1 | 15.6
COc1cc(/C=C2\SC(=O)NC2=O)ccc1Oc1ccc([N+](=O)[O-])cc1[N+](=O)[O-] | 11.5
COc1cccc(/C=C/C(=O)Nc2ccccc2N2CCOCC2)c1 | -4.56
Cc1cccc(C(=O)NCCNc2nc3cc(C)c(C)cc3cc2C)c1 | 8.3
COc1ccc(-c2cc(C(F)(F)F)n3ncc(C(=O)Nc4c(C)n(C)n(-c5ccccc5)c4=O)c3n2)cc1 | 9.28
O=C(Nc1ccc(Nc2ccccc2)cc1)c1c(F)c(F)c(F)c(F)c1F | 10.8
CCCCSc1nnc(CSc2nc3nc(C)cc(C)n3n2)o1 | -3.1
CCOc1cc(CN2CCc3c([nH]c4ccccc34)C2)ccc1OC | 5.97
CCN(CC)c1ccc(/C=C(\C#N)C(N)=S)cc1 | 7.02
Cc1cc(C)cc(NS(=O)(=O)c2c(C(=O)N3CCOCC3)c(C)n(C)c2C)c1 | 16.3
Cn1/c(=N/N=C/c2ccc(Cl)c([N+](=O)[O-])c2)sc2ccccc21 | 7.16
Cc1cc(C2=CC(C)(c3cc(C)oc3C)Nc3nc(C(F)(F)F)nn32)c(C)o1 (centres unmarked) | 15.3
O=C(N/N=C/C1CCCCC1)c1ccccc1-n1cccc1 | 13.4
CCN(CC)S(=O)(=O)c1cccc(-c2nnc(SCC(=O)NC3CCCCCCC3)n2N)c1 | 0.48
COc1cc(C(=O)Nc2sc(C(=O)N3CCOCC3)c(C)c2C#N)cc(OC)c1OC | 11.3
CCNC(=S)Nc1cc(OCC)c(N2CCOCC2)cc1OCC | 10
O=C(/C=C/c1cccs1)Nc1cccc(NC(=O)/C=C/c2cccs2)n1 | 11.3
CCc1cccc(NC(=O)c2cc(S(=O)(=O)N(C)C)ccc2N2CCCC2)c1 | -9.27
FC(F)(F)c1ccc(NCc2ccccn2)nc1 | 9.79

SMILES | hERG current change (%, negative = inhibition) at 1uM [%]
O=C(COC(=O)c1cc(-c2ccc(F)cc2)nc2ccccc12)NCC1CCCO1 (centres unmarked) | 0.317
O=C(NC1CCCC1)C1CCCN1C(=O)Nc1ccc(Cl)cc1 (centres unmarked) | 1.63
O=c1[nH]c(NCCO)nnc1Cc1ccccc1 | 10.5
COc1cccc(-c2nc(CS(=O)(=O)CC(=O)N3CCN(C4CCCCC4)CC3)c(C)o2)c1 | -6.54
O=C(COC(=O)C1=COCCO1)Nc1c(F)cccc1F | 19
O=C(C[n+]1cc(-c2ccccc2)n2c1CCC2)Nc1nc(-c2ccccc2)cs1.[Cl-] | -8.5
c1ccc(N2CCOCCOCCOCCOCC2)cc1 | 6.91
O=C(CC1SCCNC1=O)Nc1ccc(F)c(Cl)c1 (centres unmarked) | 16.9
COc1ccc(C(Cl)=C(c2ccc(OC)cc2)c2ccc(OC)cc2)cc1 | 22
CN1C(=O)N(CC(=O)Nc2nccs2)C(=O)C12CCCCC2 | 10.5
COCCNC(=O)CCCn1c(=O)c2cc(OC)c(OC)cc2n(CC(=O)NCCC2=CCCCC2)c1=O | 6.1
NC(=O)c1ccccc1NC(=O)/C=C/c1c(Cl)cccc1Cl | 3.55
Cc1c(/C=C/C(=O)c2ccc(Cl)s2)cnn1C | 4.64
CC(NC(=O)C1c2ccccc2Oc2ccccc21)C1CCCO1 (centres unmarked) | 14.3
CCc1ccc(-n2c(=O)c3ccc(C(=O)NCCc4ccccc4)cc3n(CC(N)=O)c2=O)cc1 | 9.52
CCCc1c2c(cc3c(=O)cc(C(=O)OCC)oc13)CCCC2 | 11.8
O=C(COc1ccc(Br)cc1)NC(=S)Nc1ccccc1N1CCOCC1 | 18.5
COc1ccc(C(CNC(=O)c2ccc(Cl)s2)N2CCOCC2)cc1 (centres unmarked) | 0.315
O=C(Nc1cccc2c1N(C(=O)c1ccco1)CCC2)c1ccco1 | 5.89
COc1ccc(/C=N/NC(=O)C(=O)NCc2cccnc2)cc1 | 12.5
COc1cccc(NC(=O)c2cccc(S(=O)(=O)N3CCN(Cc4ccccc4)CC3)c2)c1 | 12.7
Cc1ccnc(NS(=O)(=O)c2ccc(NS(=O)(=O)c3ccccc3)cc2)n1 | -0.544
Cc1ccc2c(CC(=O)NNC(=O)c3ccccc3O)coc2c1 | 9.45

SMILES | hERG current change (%, negative = inhibition) at 1uM [%]
O=C(CNC(=O)c1ccco1)NCC(=O)OCc1ccc(Cl)cc1Cl | -23.7
CCOc1cccc(/C(O)=C2/C(=O)C(=O)N(CCN3CCOCC3)C2c2ccncc2)c1 (centres unmarked) | -1.9
Cc1cc(Br)c(NC(=O)COn2nnc3ccc(S(C)(=O)=O)cc32)c(Br)c1 | 2.99
CC(=O)Nc1sc(N/N=C\c2ccccc2)nc1-c1cccs1 | 13.4
Cc1oc2ccc(OCC(N)=O)cc2c1C(=O)OC(C)C | -0.677
Cc1nn(C)c(C(=O)Nc2ccc3c(c2)OCO3)c1[N+](=O)[O-] | 17
CS(=O)c1ccccc1COC(=O)Nc1ccccc1 (centres unmarked) | 9.6
COC(=O)C(N)CCCCN.Cl (centres unmarked) | 14.2
C=CCn1c(O)c(C(C)=NCCN2CCOCC2)c(=O)[nH]c1=O | -4.63
COc1cc(/C=C/C(=O)Nc2ccc(C(C)=O)cc2)cc(OC)c1OC | 10.2
COC(=O)C1CCN(C(=O)COC(=O)COc2ccc(C#N)cc2)CC1 | 9.61
N=c1oc2ccc(Cl)cc2cc1C(=O)Nc1ccc(F)cc1 | 9.66
O=C(Cn1nnc(-c2ccccc2F)n1)Nc1ccc(S(=O)(=O)NC2CCCC2)cc1 | 9.62
CCOc1ccc(NC(=O)c2sc3nc4n(c(=O)c3c2C)CCC4)cc1 | 6.67
O=C(O)c1ccc(N/N=C/c2ccncc2)cc1 | 10
Cc1nc2ccccn2c1/C(O)=C1\C(=O)C(=O)N(CCN2CCOCC2)C1c1ccncc1 (centres unmarked) | 2.26
CC1CCC(NC(=O)CCS(=O)(=O)c2ccc3c(c2)oc(=O)n3C)CC1 (centres unmarked) | 12.3
Cc1nc(C)c(C(=O)N2CCCC(C(=O)c3ccc4ccccc4c3)C2)s1 (centres unmarked) | -2.83
Cc1cc(Nc2ccc(Br)cc2)n2nc(C)nc2n1 | -17.1
CCN(CC)C(=O)c1oc2ccc(S(=O)(=O)N3CCCCCC3)cc2c1C | 7.35
COc1ccccc1NC(=O)CSc1nnc(CNC(=O)c2ccco2)n1C | 10.2
COCCCn1c(O)c(/C=C2\N=C(C#N)C(=Nc3ccc(C)cc3)O2)sc1=S | 17
CN1CCC2(CC1)N=C(c1ccc(F)cc1)C(=S)N2 | 5.62

SMILES | hERG current change (%, negative = inhibition) at 1uM [%]
CCOC(=O)C1(Cc2ccc(OC)cc2)CCN(C(=O)c2cc(C)nn2C)CC1 | -20.2
CNC(=O)CN1C(=O)COc2ccc(S(=O)(=O)N3CCCCCC3)cc21 | 19.3
CCCCCOC(=O)Cc1c(C)nc(-c2ccccc2)[nH]c1=O | 9.71
O=C(NCCc1ccncc1)Nc1cccc(Cl)c1 | 13.3
COc1ccc(OC)c(S(=O)(=O)N2CCCCCC2)c1 | 8.94
CCOc1ccc(NC(N)=O)cc1 | 7.81
Cn1c(=O)c2c(nc(Oc3ccccc3)n2C)n(C)c1=O | 2.92
O=C1C2C3C=CC(C3)C2C(=O)N1c1n[nH]c(CCc2ccccc2)n1 (centres unmarked) | 14.5
CN(C(=O)COC(=O)C1CCN(S(=O)(=O)c2c(Cl)cccc2Cl)CC1)c1ccccc1 | 3.59
COCCn1c(SCC(=O)Nc2ccc3c(c2)OCCO3)nc2c(c1=O)SC(C)C2 (centres unmarked) | 6.73
Cc1nc2ccccn2c(=O)c1CCN1CCC(C(=O)c2ccc(F)cc2)CC1 | -66.2
Cc1c(C(=O)NCCSCc2ccccc2)cccc1[N+](=O)[O-] | 13.2
O=C(NCc1ccccc1)c1ccc2c(=O)[nH]c3c(C(=O)NCC4CCCO4)sc(=S)n3c2c1 (centres unmarked) | 6.43
COc1ccc(OC)c(S(=O)(=O)N2CCC(C(=O)NC3CCCC3)CC2)c1 | 9.23
Brc1ccc(-c2nnc(-c3ccc4c(c3)OCO4)o2)o1 | 9.81
CCN(CC)c1ccc(/C=N/NC(=O)C(O)(c2ccccc2)c2ccccc2)o1 | 1.15
O=C(NC(=O)c1ccc(Cl)cc1)OC1CCCCC1 | 3.28
O=C(Nc1ccc([N+](=O)[O-])cc1)C1CC12CCC2 (centres unmarked) | 8.41
O=C(CC1CCCC1)NCCS(=O)(=O)N1CCN(c2ccccc2F)CC1 | 5.53
COc1ccc(C(=O)N(C)C2CCCCC2)cc1S(=O)(=O)N1CCOCC1 | 3.56
